# Results from PubChem BioAssay AID686978 (National Center for Advancing Translational Sciences (NCATS), 2013).
# Hit rate of the full screen: of about 420,000 compounds, about 64,000 (15%) were called active. The inconclusive results got no clear call from the source; some entries with a clear call stand among them for comparison. Calls come from the whole dose curve; as a rule, active = well fitted inhibition curve with a large enough effect; inconclusive = small, poorly fitted or top-dose-only effect; inactive = flat fitted curve, though single readings scatter. No potency is given beside an inconclusive call; the fits are too rough.
# Assay: qHTS for Inhibitors of human tyrosyl-DNA phosphodiesterase 1 (TDP1): qHTS in cells in absence of CPT; note: nearly all actives have a fitted effect of over 55% in size
# Conditions: DT40 Tdp1-/- hTDP1 cells, no CPT, ATP luminescence, 48 h; activity change, negative = growth inhibition: at 46.2 µM (top of the series) unless noted
# Outline: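 Chicken DT40 Tdp1-/- cells stably complemented with human TDP1 were seeded at 400 cells/well with DMSO in place of 20 nM camptothecin. After compound pinning, cells grew at least 48 hr at 37 °C; viability read by CellTiter-Glo luminescence.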
# % is set by controls: 0 for no effect and ±100 for the full control effect; potency is the fitted concentration of half-maximal effect; tags give direction and shape of the fitted curve.
SMILES,Potency,"activity change, negative = growth inhibition"
Cc1cc(NC(=O)Cc2cc(F)cc(F)c2)no1,inactive,
Cc1ccccc1-c1noc(-c2cccnc2N(C)Cc2ccc(Cl)cc2)n1,"inconclusive [inhibitor, partial curve]",
C/C(CC(=O)Nc1cc(Cl)ccc1Cl)=N\NC(=O)COc1cccc(C)c1,,inconclusive: -31.5% [inhibitor]
O=C(c1ccccc1)N(Cc1ccc2c(c1)OCO2)Cc1nc2ccccc2c(=O)[nH]1,,inconclusive: -30.6% [inhibitor]
O=C(CCc1c[nH]c2ccccc12)OCC(=O)c1ccccc1,"inconclusive [inhibitor, single point]",
CCc1ccc2[nH]c(=O)c(CN(Cc3ccco3)S(=O)(=O)c3ccc4c(c3)OCCO4)cc2c1,"inconclusive [inhibitor, partial curve]",
Cc1cccc(Nc2nnc(-c3ccc(N4CCOCC4)c([N+](=O)[O-])c3)c3ccccc23)c1,active: 18.4 µM,
COc1ccc(C(=O)/C=C/c2ccc(OC)c(COc3ccc(F)cc3)c2)cc1,"inconclusive [inhibitor, single point]",
CC(NC(=O)c1ccc(Br)s1)c1ccncc1 (configuration not stated),inactive,
COc1ccc(NCC(=O)Nc2cccc(S(=O)(=O)N3CCCC3)c2)cc1Cl,active: 13 µM,
Cc1ccc(OCC(=O)N2CCCCCCC2)cc1C,"inconclusive [inhibitor, single point]",
CCOC(=O)c1cccc(NC(=O)CCC(=O)N2CC(C)Oc3ccc(C)cc32)c1 (configuration not stated),"inconclusive [inhibitor, single point]",
COc1ccc(-c2oc3c(c2-c2cnc(OC)nc2)C(O)CC3)cc1 (configuration not stated),"inconclusive [inhibitor, single point]",
CC(=O)Nc1ccc(S(=O)(=O)NNC(=O)c2ccc3c(c2)OCO3)cc1,inactive,
CN(C)CCN(C(=O)c1ccco1)c1nc2cc3c(cc2s1)OCCO3,active: 3.66 µM,
COc1ccc(C(=O)Nc2ccc(Nc3ccccc3)cc2)cc1Br,"inconclusive [inhibitor, single point]",
O=C(Cn1c(N2CCN(c3ccccc3)CC2)nc2ccccc21)c1ccccc1,"inconclusive [inhibitor, single point]",
CCSc1nsc(NC(=O)Nc2ccccc2F)n1,active: 16.4 µM,
O=C(C1CC1)N1CCN(c2nc3c(Cl)cccc3s2)CC1,active: 20.6 µM,
Cc1[nH]c2ccccc2c1C(=O)CSc1ccccn1,"inconclusive [inhibitor, full curve, poor fit]",
O=S(=O)(c1ccccc1)c1nc(-c2ccco2)oc1N1CCCCC1,"inconclusive [inhibitor, single point]",
COc1ccc2[nH]c(=O)c(CN(C(=O)C(C)C)c3ccccc3OC)cc2c1,"inconclusive [inhibitor, partial curve]",
O=C(Nc1cccc2cccnc12)c1ccc(Br)o1,"inconclusive [inhibitor, single point]",
CC(=O)Nc1cccc(S(=O)(=O)N2CCCCCC2)c1,inactive,

SMILES,Potency,"activity change, negative = growth inhibition"
O=C(Nc1ccc(-c2cn3ccsc3n2)cc1)C1CCCC1,active: 16.4 µM,
Cn1c(=N)c(S(=O)(=O)c2ccc(F)cc2)cc2c(=O)n3ccccc3nc21,inactive,
CC(C)c1ccc(NC(=O)CSc2ncccc2C(=O)Oc2cccc([N+](=O)[O-])c2)cc1,"inconclusive [inhibitor, single point]",
OCC1(Cc2ccccc2F)CCCN(CC2CCCCC2)C1 (configuration not stated),"inconclusive [inhibitor, single point]",
CCCCN(c1nc2ccccc2nc1Cl)S(=O)(=O)c1ccc(C)cc1,active: 9.2 µM,
COC(=O)C1=C(C)NC(C)=C(C(=O)OC)C1c1ccc(C)o1,inactive,
CCNc1sc(C(=O)OCC)c(N)c1C#N,inactive,
CSCCC(c1nc2ccccc2[nH]1)n1c(=O)c(-c2cc3ccccc3[nH]2)nc2ccccc21 (configuration not stated),"inconclusive [inhibitor, single point]",
Cc1cc(C)n(-c2nc3ccccc3c(=O)n2OCC#N)n1,active: 0.651 µM,
CC1CN(C)C(C)CC1OC(=O)C(c1ccccc1)c1ccccc1 (configuration not stated),active: 23.1 µM,
Cc1ccc(/C=N/NC(=O)C2=NNC(c3ccccc3)(c3ccccc3)C2)c(O)c1,active: 4.11 µM,
N#Cc1c2c(c(Nc3ccccc3)n3c1nc1ccccc13)CCC2,,inconclusive: -33.5% [inhibitor]
COc1ccc(/C=C/C(=O)NC2CCCCCCC2)cc1S(=O)(=O)N1CCOCC1,active: 20.6 µM,
COC(=O)Nc1ccc(S(=O)(=O)N2CCCC(C(=O)NC3CCCCC3)C2)cc1 (configuration not stated),"inconclusive [inhibitor, single point]",
CS(=O)(=O)c1ccc(Nc2nc(C(N)COCc3ccccc3)cs2)cc1 (configuration not stated),active: 20.6 µM,
CC(=O)c1sc(=S)n(-c2ccc(Cl)cc2)c1C,"inconclusive [inhibitor, single point]",
Cc1ccc(NC(=O)C2CCCN2S(=O)(=O)c2cccc3nsnc23)cc1Cl (configuration not stated),"inconclusive [inhibitor, partial curve, poor fit]",
Cc1ccc(NC(=O)/C(=C/c2cccc([N+](=O)[O-])c2)NC(=O)C2CCCCC2)c(C)c1,"inconclusive [inhibitor, partial curve]",
COc1ccccc1CNC(=O)COC(=O)c1cccnc1SCC(=O)NCc1ccccc1OC,"inconclusive [inhibitor, partial curve]",
N#Cc1cccc(NC(=O)N2CC3(CCN(C(=O)c4cc(C(F)(F)F)cc(C(F)(F)F)c4)CC3)C2)c1,inactive,
CCN(CC(=O)NCC1CCCO1)S(=O)(=O)c1ccc(Cl)cc1 (configuration not stated),inactive,
Cc1c(C(=O)Nc2ccc(C(C)C)cc2)sc2nc[nH]c(=O)c12,active: 18.4 µM,
CCN(CC)C(=O)c1cnn(-c2ccccc2)c1NC(=O)c1cccs1,inactive,
Cc1cnc(NC(=O)c2cccc(S(=O)(=O)N3CC(C)OC(C)C3)c2)s1 (configuration not stated),"inconclusive [inhibitor, single point]",

SMILES,Potency,"activity change, negative = growth inhibition"
c1ccc2[nH]c(NC3=NCCC3)nc2c1,"inconclusive [inhibitor, single point]",
Cc1ccc(C)c(NC(=O)CN(C)C(=O)c2ccc(Cl)nc2)c1,inactive,
O=C(CCNC(=O)c1ccccc1Cl)NCCc1ccc(Cl)cc1,inactive,
COc1ccc2oc(C(=O)OCC(=O)Nc3ccc(C)c(S(=O)(=O)N4CCOCC4)c3)c(C)c2c1,inactive,
CCc1nc2ccc(C(=O)N3CCN(C(=O)c4ccco4)CC3)cn2c1N(C)Cc1nccn1C,inactive,
CNC(=O)CSc1nc2[nH]ncc2c(=O)[nH]1,inactive,
O=C(C1CCC(Cn2c(=O)c3sccc3n(Cc3cccc(F)c3)c2=O)CC1)N1CCCCC1 (configuration not stated),active: 5.8 µM,
O=C(N/N=C/c1cc(Br)cs1)c1ccccc1[N+](=O)[O-],"inconclusive [inhibitor, partial curve, poor fit]",
O=C(NCCCN1CCCC1=O)c1ccc([N+](=O)[O-])s1,"inconclusive [inhibitor, single point]",
CCn1c(COc2cc(C)cc(C)c2)nnc1SCC(=O)N1CCN(c2ccccc2)CC1,"inconclusive [inhibitor, single point]",
COc1cc(C=C(c2nc3ccccc3s2)c2nc3ccccc3s2)ccc1O,inactive,
CC(C)=CCC/C(C)=C/CNC(=O)C[C@H]1C[C@H](C(=O)N(C(C)C)C(C)C)[C@@]2(C)c3[nH]c4cc(-c5ccco5)ccc4c3CCN2C1=O,"inconclusive [inhibitor, single point]",
O=C1CCC/C(=N\NC(=O)c2ccc(COc3ccccc3-c3ccccc3)cc2)C1,"inconclusive [inhibitor, single point]",
CCc1nnc(NC(=O)C2CCN(C(=O)c3ccco3)CC2)s1,inactive,
CC(C)(C)c1nnc(NC(=O)C2CCN(C(=O)c3ccccc3)CC2)s1,"inconclusive [inhibitor, single point]",
O=C(NN=Cc1cccc([N+](=O)[O-])c1)c1cccc2ccccc12,"inconclusive [inhibitor, full curve]",
COC(=O)c1ccccc1NC(=O)CN(C)S(=O)(=O)c1ccc(OC)cc1,"inconclusive [inhibitor, single point]",
CCCCCCSc1ccc([C@H]2N[C@@](Cc3ccccc3)(C(=O)OC)[C@H]3C(=O)N(C)C(=O)[C@@H]23)cc1OC,"inconclusive [inhibitor, single point]",
O=C(NCCc1ccccc1)C(=O)NCC(c1cccnc1)N1CCN(c2ccccc2F)CC1 (configuration not stated),"inconclusive [inhibitor, single point]",
CCCOc1cccc(C2C(C(=O)c3cccs3)=C(O)C(=O)N2CCN2CCOCC2)c1 (configuration not stated),inactive,
Cc1ccc(CNC(=O)C(=O)NCC(c2ccco2)S(=O)(=O)c2cccs2)cc1 (configuration not stated),"inconclusive [inhibitor, single point]",
CC(=O)Nc1ccccc1NC(=O)C/C(C)=N/NC(=O)c1ccc([N+](=O)[O-])c(Cl)c1,inactive,
COc1ccc(/C=C2/C=Cc3ccccc32)cc1,"inconclusive [inhibitor, single point]",
CN1CCN(c2nc(-c3ccccc3)nc(-c3ccccc3)c2C#N)CC1,"inconclusive [inhibitor, single point]",
